Laboratory results as given in the RNAGym collection of RNA variant scans (doi:10.1093/nar/gkz1192).
Read counts are not given, so values of variants with three or more changes are uncertain.

B1: CPEB3 Ribozyme (parent)
chain: UAACAGGGGGCCACAGCAGAAGCGUUCACGUCGCAGCCCCUGUCAGAUUCUGGUGAAUCUGCGAAUUCUGCUGUAUAUCUC

Variants of: B1
Assay: self-cleavage, relative activity (ratio to wild type); higher = more cleavage; in vitro, sequencing
Outline: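 CPEB3 self-cleaving ribozyme mutant libraries were made by rounds of error-prone PCR, barcoded, and transcribed in vitro with T7 RNA polymerase for 5 hours at 37°C. Cleavage occurred during transcription and a 15 min DNase I step before EDTA stop. RNAs were reverse transcribed with template switching and Illumina-sequenced, with DNA sequencing mapping barcodes to variants. Relative activity is the variant's cleaved/total read fraction divided by wild type's (minimum 5 reads), averaged across three batches.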

Variant	self-cleavage
G6A A15G C38A A45G U72C	0.11
G6A A15G G24C G36C U74C A75G	0.05
G6A A15G G30A A35U U69A	0.05
G6A A15G G55A U58C A75U	0.25
G6A A15G U26G U41A U49A U80C	0.03
G6A A15G U31A U43C	0.33
G6A A15G U31C U80C	0.54
G6A A15G U41A	0.35
G6A A15G U41G A77U	0.3
G6A A15G U43C U67C	0.15
G6A A15G U69A U80G	0.17
G6A A15G U72A U74C	0.45
G6A A15U A20G	0.18
G6A A15U A47U A57U G70A U80C	0.07
G6A A15U U26C U43A A64U U67A	0.05
G6A A18G A20G U41C U58C A65U U72A	0
G6A A18G A28U A56G A65G U66C U80A	0.02
G6A A18G A35U A64G U66C U72C	0.04
G6A A18G A35U U54A	0.36
G6A A18G A45U U60C C71G	0.06
G6A A18G A75U	0.34

Variant	self-cleavage
G6A A18G C29U	0.08
G6A A18G U26A	0.31
G6A A18G U31C G52A C62A U69C	0.05
G6A A18G U41A U43A A56U C71G	0.04
G6A A18G U41A U49C	0.07
G6A A18G U58A U78C	0.06
G6A A18U A35G A47G U74C U80C	0.14
G6A A18U U25C C32A U80A	0.33
G6A A18U U26C U69C U72A	0.08
G6A A18U U43C C68A	0.05
G6A A20C U31A	0.09
G6A A20G A21C U26A	0.6
G6A A20G A28G G33A G63U U66C C71G	0.09
G6A A20G A35C G36A U41C U49A U69A	0.06
G6A A20G A35G U76A	0.47
G6A A20G A65U	0.4
G6A A20G C32A A64G	0.18
G6A A20G U41A U51C	0.13
G6A A20G U41G U48C U69C	0.12
G6A A20G U43A U48C A65C U69C	0.05
G6A A20G U51C A64G U72A	0.14

Variant	self-cleavage
G6A A20G U66C U76G	0.16
G6A A20G U69C	0.2
G6A A20G U72A A77G	0.33
G6A A20U A45U A47G U54A U76A	0.05
G6A A20U G33A U51C A65U U67A	0.04
G6A A21G A35G U41A A57G U67C	0.05
G6A A21G A35U	0.07
G6A A21G C40A U48C U51C	0.66
G6A A21G U25C U41C U60C	0.31
G6A A21G U31A U66C U72G	0.07
G6A A21G U31C A35G U49C A64G	0.13
G6A A21G U31C U41A U54C	0.08
G6A A21G U31C U60C C62G	0.05
G6A A21U C23U A28U C71U A77G	0.04
G6A A21U C27U A28G U80C	0.15
G6A A28C U69C U76A U78C	0.12
G6A A28G A64G A65U G73A	0.26
G6A A28G C29G U31A A45G U54A A57U	0.05
G6A A28G C62A	0.02
G6A A28G G46U A56C	0.12
G6A A28G U43C A65G U66C A77U	0.05

Variant	self-cleavage
G6A A28G U76C U80C	0.37
G6A A35C U58C U76A U80A	0.45
G6A A35G A56G	0.57
G6A A35G U41A A64U U80C	0.06
G6A A35G U41A U49A U69C	0.07
G6A A35G U51C	0.65
G6A A35U A64G	0.53
G6A A35U C37U C40G	0.16
G6A A35U U41A U43C U69A	0.05
G6A A35U U49A A65G U69C U72A	0.05
G6A A35U U69C	0.12
G6A A45C U69C	0.13
G6A A45G A47U G52U	0.16
G6A A45G A65U U67A	0.39
G6A A45U A56G A57G	0.08
G6A A45U U60C U78A U80A	0.17
G6A A47G U54C	0.31
G6A A47G U67C U72C C81A	0.04
G6A A47U U78C	0.07
G6A A47U U80A	0.08
